The list shows a part of the results.
tested on: HSkMC (human skeletal muscle cells); assay: cytotoxicity call (relative viability < 0.9); conditions: 10 µM

| Structure (SMILES) | cytotoxicity call |
| --- | --- |
| Cc1noc(C)c1S(=O)(=O)Nc1ccc2c(c1)C(=O)N([C@H](C)CO)C[C@@H](C)[C@@H](CN(C)C(=O)Nc1ccc3c(c1)OCO3)O2 | inactive |
| C[C@@H]1CCCCO[C@@H](CN(C)C(=O)Cc2ccccc2)[C@@H](C)CN([C@H](C)CO)C(=O)c2cc(NC(=O)Nc3cccc4ccccc34)ccc2O1 | inactive |
| C[C@@H]1CN([C@@H](C)CO)C(=O)c2cc(NC(=O)Nc3ccc(F)cc3)ccc2O[C@H]1CN(C)Cc1ccc(Cl)c(Cl)c1 | inactive |
| Cc1ccc(-c2ccc3c(c2)O[C@H](CN(C)C(=O)NC(C)C)[C@@H](C)CN([C@H](C)CO)S3(=O)=O)cc1 | inactive |
| C[C@@H]1CCCCO[C@H](CN(C)S(C)(=O)=O)[C@H](C)CN([C@@H](C)CO)C(=O)c2cc(NS(=O)(=O)c3ccccc3)ccc2O1 | inactive |
| Cc1ccc(S(=O)(=O)Nc2cccc3c2O[C@@H](CN(C)Cc2ccc(Oc4ccccc4)cc2)[C@H](C)CN([C@H](C)CO)C3=O)cc1 | inactive |
| C[C@@H]1CN([C@H](C)CO)C(=O)c2cc(NS(=O)(=O)c3cccs3)ccc2O[C@H]1CN(C)S(=O)(=O)c1cccs1 | inactive |
| O=C(N[C@@H]1CC=CC[C@H](CC(=O)N(CCO)Cc2ccccc2)C(=O)N[C@@H](c2ccccc2)COC1=O)OCC1c2ccccc2-c2ccccc21 | inactive |
| C[C@@H]1CN([C@H](C)CO)C(=O)c2cc(C#Cc3cccnc3)cnc2O[C@H]1CN(C)S(C)(=O)=O | inactive |
| O=C(C[C@@H]1CC[C@@H]2[C@H](COC[C@H](O)CN2C(=O)Nc2ccc(Cl)cc2)O1)NCCc1ccncc1 | inactive |
| O=C(C[C@@H]1CC[C@H]2[C@@H](COC[C@@H](O)CN2C(=O)c2cccnc2)O1)NCc1ccc(-c2ccccc2)cc1 | inactive |
| O=C1C[C@@H]2C(=O)NCCN2C(NC(=O)c2ccccc2)=N1 | inactive |
| O=C(C[C@@H]1CC[C@H]2[C@@H](COC[C@H](O)CN2C(=O)C2CC2)O1)NCc1ccncc1 | inactive |
| C[C@H](CO)N1C[C@H](C)[C@H](CN(C)S(=O)(=O)c2ccc(Cl)cc2)Oc2ccc(NC(=O)CCCN(C)C)cc2C1=O | inactive |
| Cc1ccc(S(=O)(=O)N(C)C[C@H]2Oc3ccc(NC(=O)CCN4CCOCC4)cc3C(=O)N([C@H](C)CO)C[C@H]2C)cc1 | inactive |
| CC(C)CC#Cc1ccc2c(c1)O[C@H](CN(C)S(=O)(=O)c1cccc(F)c1)[C@H](C)CN([C@@H](C)CO)S2(=O)=O | inactive |
| CCOC(=O)C1=C(C)NC(C)=C(C(=O)OC)C1c1cccc(Cl)c1Cl (stereo not drawn) | inactive |
| CNC[C@H]1OCCCC[C@@H](C)Oc2ccc(NC(=O)Nc3cccc4ccccc34)cc2C(=O)N([C@@H](C)CO)C[C@H]1C | inactive |
| C[C@@H]1CN([C@H](C)CO)S(=O)(=O)c2ccc(C#CCN(C)C)cc2O[C@@H]1CN(C)C(=O)C1CCCCC1 | inactive |
| CC(C)NC(=O)N(C)C[C@H]1Oc2c(NS(=O)(=O)c3cn(C)cn3)cccc2C(=O)N([C@H](C)CO)C[C@H]1C | inactive |
| O=C(C[C@H]1CC[C@@H]2[C@H](COC[C@@H](O)CN2S(=O)(=O)c2ccccc2)O1)N1CCOCC1 | inactive |
| Cc1noc(C)c1NC(=O)N(C)C[C@@H]1OCCCC[C@@H](C)Oc2ccc(NS(=O)(=O)c3ccc(Cl)cc3)cc2C(=O)N([C@H](C)CO)C[C@H]1C | inactive |
| C[C@@H]1CCCCO[C@@H](CN(C)C(=O)c2ccncc2)[C@@H](C)CN([C@H](C)CO)C(=O)c2cc(NC(=O)CCCCCC(=O)Nc3ccccc3N)ccc2O1 | inactive |
| C[C@H]1CN([C@@H](C)CO)C(=O)c2cc(NC(=O)Nc3ccc(C(F)(F)F)cc3)ccc2O[C@@H]1CN(C)Cc1ccc(Oc2ccccc2)cc1 | inactive |
| Nc1nnc([C@H]2CCCO2)o1 | inactive |
| COc1ccc(S(=O)(=O)N(C)C[C@@H]2Oc3ccc(NS(=O)(=O)c4ccc(F)cc4)cc3C(=O)N([C@@H](C)CO)C[C@H]2C)cc1 | inactive |
| COc1ccc(S(=O)(=O)N[C@@H]2C=C[C@@H](CC(=O)NCCc3ccncc3)O[C@@H]2CO)cc1 | inactive |
| Cl.NC(Cc1ccc(O)cc1)C(=O)O (stereo not drawn) | inactive |
| CC(C)c1cc2c(cc1S(=O)(=O)O)[C@@]1(C)CCC[C@@](C)(C(=O)O)[C@@H]1CC2 | inactive |

tested on: HepG2; assay: cytotoxicity call (relative viability < 0.9); conditions: 10 µM

| Structure (SMILES) | cytotoxicity call |
| --- | --- |
| CO[C@H]1CN(C)C(=O)c2ccc(NC(=O)C3CC3)cc2OC[C@H](C)N(C(=O)Cc2ccccn2)C[C@H]1C | inactive |
| C[C@H]1CN([C@@H](C)CO)C(=O)c2cccc(NC(=O)C3CC3)c2O[C@@H]1CN(C)Cc1ccc(C(=O)O)cc1 | inactive |
| C[C@@H]1CN([C@@H](C)CO)C(=O)c2cc(NC(=O)c3ccncc3)ccc2O[C@@H](C)CCCCO[C@@H]1CN(C)Cc1ccccc1 | inactive |
| C[C@@H]1CN(CC(=O)N2CC(C)(C)c3nc(CO)c(Cc4ccc(F)cc4)cc32)[C@@H](CN2CCOC[C@H]2C)CN1 | inactive |
| C=CCOC(=O)[C@@H]1[C@@H]2C=C[C@]3(O2)[C@H](C(=O)N(CC=C)Cc2ccccc2)N(c2cccc(Cl)c2CO)C(=O)[C@@H]13 | inactive |
| C[C@@H]1CN([C@H](C)CO)C(=O)c2cc(-c3cccnc3)cnc2O[C@@H]1CN(C)Cc1ccc(Oc2ccccc2)cc1 | inactive |
| CO[C@H](CN(C)S(=O)(=O)c1cccc(Cl)c1)[C@@H](C)CN([C@H](C)CO)S(=O)(=O)c1cccc(Cl)c1 | inactive |
| C[C@@H]1CN([C@H](C)CO)C(=O)c2cc(NC(=O)c3ccccc3)ccc2O[C@@H](C)CCCCO[C@@H]1CN(C)S(=O)(=O)c1ccc(Cl)cc1 | inactive |
| CC(C)NC(=O)Nc1ccc2c(c1)C(=O)N([C@@H](C)CO)C[C@H](C)[C@H](CN(C)S(=O)(=O)c1ccccc1)O2 | inactive |
| C[C@H]1CN([C@@H](C)CO)C(=O)c2cc(NC(=O)Cc3ccccc3)ccc2O[C@H]1CN(C)Cc1ccc(Cl)c(Cl)c1 | inactive |
| Cc1noc(C)c1S(=O)(=O)Nc1ccc2c(c1)C(=O)N([C@H](C)CO)C[C@@H](C)[C@@H](CN(C)C(=O)Nc1ccc3c(c1)OCO3)O2 | inactive |
| C[C@@H]1CCCCO[C@@H](CN(C)C(=O)Cc2ccccc2)[C@@H](C)CN([C@H](C)CO)C(=O)c2cc(NC(=O)Nc3cccc4ccccc34)ccc2O1 | inactive |
| C[C@@H]1CN([C@@H](C)CO)C(=O)c2cc(NC(=O)Nc3ccc(F)cc3)ccc2O[C@H]1CN(C)Cc1ccc(Cl)c(Cl)c1 | inactive |
| Cc1ccc(-c2ccc3c(c2)O[C@H](CN(C)C(=O)NC(C)C)[C@@H](C)CN([C@H](C)CO)S3(=O)=O)cc1 | inactive |
| C[C@@H]1CCCCO[C@H](CN(C)S(C)(=O)=O)[C@H](C)CN([C@@H](C)CO)C(=O)c2cc(NS(=O)(=O)c3ccccc3)ccc2O1 | inactive |
| Cc1ccc(S(=O)(=O)Nc2cccc3c2O[C@@H](CN(C)Cc2ccc(Oc4ccccc4)cc2)[C@H](C)CN([C@H](C)CO)C3=O)cc1 | inactive |
| C[C@@H]1CN([C@H](C)CO)C(=O)c2cc(NS(=O)(=O)c3cccs3)ccc2O[C@H]1CN(C)S(=O)(=O)c1cccs1 | active |

| Structure (SMILES) | cytotoxicity call |
| --- | --- |
| O=C(N[C@@H]1CC=CC[C@H](CC(=O)N(CCO)Cc2ccccc2)C(=O)N[C@@H](c2ccccc2)COC1=O)OCC1c2ccccc2-c2ccccc21 | inactive |
| C[C@@H]1CN([C@H](C)CO)C(=O)c2cc(C#Cc3cccnc3)cnc2O[C@H]1CN(C)S(C)(=O)=O | inactive |
| O=C(C[C@@H]1CC[C@@H]2[C@H](COC[C@H](O)CN2C(=O)Nc2ccc(Cl)cc2)O1)NCCc1ccncc1 | inactive |
| O=C(C[C@@H]1CC[C@H]2[C@@H](COC[C@@H](O)CN2C(=O)c2cccnc2)O1)NCc1ccc(-c2ccccc2)cc1 | inactive |
| O=C1C[C@@H]2C(=O)NCCN2C(NC(=O)c2ccccc2)=N1 | inactive |
| O=C(C[C@@H]1CC[C@H]2[C@@H](COC[C@H](O)CN2C(=O)C2CC2)O1)NCc1ccncc1 | inactive |
| C[C@H](CO)N1C[C@H](C)[C@H](CN(C)S(=O)(=O)c2ccc(Cl)cc2)Oc2ccc(NC(=O)CCCN(C)C)cc2C1=O | inactive |
| Cc1ccc(S(=O)(=O)N(C)C[C@H]2Oc3ccc(NC(=O)CCN4CCOCC4)cc3C(=O)N([C@H](C)CO)C[C@H]2C)cc1 | inactive |
| CC(C)CC#Cc1ccc2c(c1)O[C@H](CN(C)S(=O)(=O)c1cccc(F)c1)[C@H](C)CN([C@@H](C)CO)S2(=O)=O | active |
| CCOC(=O)C1=C(C)NC(C)=C(C(=O)OC)C1c1cccc(Cl)c1Cl (stereo not drawn) | inactive |
| CNC[C@H]1OCCCC[C@@H](C)Oc2ccc(NC(=O)Nc3cccc4ccccc34)cc2C(=O)N([C@@H](C)CO)C[C@H]1C | inactive |
| C[C@@H]1CN([C@H](C)CO)S(=O)(=O)c2ccc(C#CCN(C)C)cc2O[C@@H]1CN(C)C(=O)C1CCCCC1 | inactive |
| CC(C)NC(=O)N(C)C[C@H]1Oc2c(NS(=O)(=O)c3cn(C)cn3)cccc2C(=O)N([C@H](C)CO)C[C@H]1C | inactive |
| O=C(C[C@H]1CC[C@@H]2[C@H](COC[C@@H](O)CN2S(=O)(=O)c2ccccc2)O1)N1CCOCC1 | inactive |
| Cc1noc(C)c1NC(=O)N(C)C[C@@H]1OCCCC[C@@H](C)Oc2ccc(NS(=O)(=O)c3ccc(Cl)cc3)cc2C(=O)N([C@H](C)CO)C[C@H]1C | inactive |
| C[C@@H]1CCCCO[C@@H](CN(C)C(=O)c2ccncc2)[C@@H](C)CN([C@H](C)CO)C(=O)c2cc(NC(=O)CCCCCC(=O)Nc3ccccc3N)ccc2O1 | inactive |
| C[C@H]1CN([C@@H](C)CO)C(=O)c2cc(NC(=O)Nc3ccc(C(F)(F)F)cc3)ccc2O[C@@H]1CN(C)Cc1ccc(Oc2ccccc2)cc1 | inactive |

From the antibiotic and cytotoxicity screens of Wong et al. (2023)
